Assay results as given in the RNAGym collection of RNA variant scans (doi:10.1093/nar/gkz1192).
Read counts are not given, so values of variants with three or more changes are uncertain.

B1: CPEB3 Ribozyme (parent)
chain: UAACAGGGGGCCACAGCAGAAGCGUUCACGUCGCAGCCCCUGUCAGAUUCUGGUGAAUCUGCGAAUUCUGCUGUAUAUCUC

Variants of: B1
Assay: self-cleavage, relative activity (ratio to wild type); higher = more cleavage; in vitro, sequencing
How it was run: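 For each CPEB3 ribozyme variant, relative activity is its cleaved/total read fraction divided by the unmutated ribozyme's. Barcoded error-prone PCR libraries were transcribed by T7 RNA polymerase (5 hours, 37°C) and held in DNase I for 15 min before an EDTA stop, with cleavage occurring throughout. Template-switching reverse transcription and Illumina sequencing were used to read the RNAs. A 5-read minimum applied, and results are the mean of three batches.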
UAACAGGGGAACACAGCAGAAGCGUUCACGGCGAAGCUCCUGUCAAAGUCUGGUGAAUCUGCGAAUUCUGCUGUAUAUCUC [G10A C11A U31G C34A C38U G46A U48G] gave a self-cleavage of 0.12.
UAACAGGGGACCACAGCGGAAGCGAUCACGUCGCAGCCCCUGUCAGAUUCUGGUGAAUCUGCGAAUUCUGCAGUACAACUC [G10A A18G U25A U72A U76C U78A] gave a self-cleavage of 0.05.
Variant UAACAGGGGACCACAGCGGAAGCGUUCACGCCGCAGCUCCUGUCAGAUUCUGGUGAAUCUGCGAAUUCAGCUGUAUAUCUC [G10A A18G U31C C38U U69A] has a self-cleavage of 0.04.
In the case of UAACAGGGUGCCACAGCAGAAGCGUUCACGUCGCAGCCCCUGUCAGAUUCCGGUGAAUCUGCGAUUUCUGCUGUAUAUCUC [G9U U51C A65U], the self-cleavage is reported as 0.15.
Work on UAACAGGGGACCUCAGCAGGAGCGUUCACGUCGCAGCCCCUGUCUGAUUCUGGUGAAUCUGCGAAUUCUGCUGUAUAUCUC [G10A A13U A20G A45U] yielded a self-cleavage of 0.46.
Variant UAACAGGGGACCACAGCAGAGGCGUUCACGUCGCAGCCCCUGUCAGAUUCUGGCGAAUCUGCGAAUCCAGCUGCAUAUCUC [G10A A21G U54C U67C U69A U74C] has a self-cleavage of 0.09.
UAACAGGGGACCACAGCAGAAGCGUUCACGUCGCAGCCCCUGUCUGAUUCUGGUGAAUCAGCGAAUCCUGCUGUAUAACUC [G10A A45U U60A U67C U78A] gave a self-cleavage of 0.11.
In the case of UAACAGGGGACCACGGCAGAAGCGUUCACGUCGCAGCCCCUGUCAGAUUCUGGUGAAUCUGCGAGUUCUGCUGUAUAUCUC [G10A A15G A65G], the self-cleavage is reported as 0.24.
In the case of UAACAGGGGACCACAGCGGAAGCGCUCACGUCGCGGCCCCUGUCAGAUUCUGGUGAAUCUGCGGGUUCUGCUGUAUUUCUC [G10A A18G U25C A35G A64G A65G A77U], the self-cleavage is reported as 0.03.
UAACAGGGGACCACUGCAGAAGCGCUCACGUCGCAGCCCCUGUCAGAUCCAGGUGAAUCUGCGAAUUCUGCUGUAUGUCUC [G10A A15U U25C U49C U51A A77G] gave a self-cleavage of 0.03.
For UAACAGGGUGCCACAGCAGAAGCGUUCACGUCGCAGCCCCUGUCAGAUUCUGGUGAAUCUGCGAACUCUGCUGUAUAGCUC [G9U U66C U78G], the self-cleavage was 0.05.
UAACAGGGGACCACAGCAGAGGCGUUCUCGUCGCAGCCCCUGUCAGAUACUGGUGAAUCUGCGAAUUCAGCUGUAUAUCUC [G10A A21G A28U U49A U69A] gave a self-cleavage of 0.22.
Work on UAACAGGGGACCACAGCUGAUGCGACCACGUCGCAGCCCCUGUCAGAUUCUGGUGGAUCUGCGAAUUAUGCUGUAUAUCUC [G10A A18U A21U U25A U26C A56G C68A] yielded a self-cleavage of 0.04.
Work on UAACAGGGGACCACAGCAGUAGCGUGCACGUCGCAGCCCCUGUCGGAUUCUGGUGAAUCUGCGAAUUCUGCUGUAAAUCUC [G10A A20U U26G A45G U76A] yielded a self-cleavage of 0.19.
UAACAGGGGACCACAGCGGAAGCGUUCACGUUGCAGCCCCCGUCAGAUUCAGGUGAAUCUGCGAAUUCUGCUGCAUAUCUC [G10A A18G C32U U41C U51A U74C] gave a self-cleavage of 0.16.
UAACAGGGGAUCACAGCAGAAGCGUUCACGCCGCAUCCCCUGUCAGAUUCUGGUGAGUCUGCGAAUUCUGCUGUAUAUCUC [G10A C11U U31C G36U A57G] gave a self-cleavage of 0.03.
With UAACAGGGGACCACAGCAGAGGCGUUCACGUCGCCGCCCCUGUCAGACUCUCGGGAAUCUGCGAAUUCUGCUGUAUAUCUC [G10A A21G A35C U48C G52C U54G] the self-cleavage was 0.03.
UAACAGGGGACCGCAGCAGAAGCGUUCACGUCGCAGCCCCUGUCAGAUUCUGGUGAAUCUGCGAAUUCUGCCGUAUAUCUC [G10A A13G U72C] showed a self-cleavage of 0.5.
UAACAGGGUGCCACAGCAGAAGCGUUCACGUCGCAGCCCCUGUCAGAUUCCGGUGAAUCUGCGAAUUCCGCGGUAUAUCAC [G9U U51C U69C U72G U80A] showed a self-cleavage of 0.11.
For UAACAGGGGACCACAGCAGAAGCGUUCGCGUCGCAGCCCCUGUCAGAUUCUGGUGAAUCUGCGAAUUCUGCUGUAGAUCUC [G10A A28G U76G], the self-cleavage was 0.05.
With UAACAGGGGACCACAGCGGAAGCGUUCACGUCGCGGCCCCUGUCAGAUUCUGGUGAAUCUGCGUAUUCUGCUGUAUAUCUC [G10A A18G A35G A64U] the self-cleavage was 0.21.
UAACAGGGGACCUCAGCAGAAGCGUUCACGUCGCAGCCCCUGUCAGAUUCUGGUGAAUCUGCGAAUUCUGCUGUAUAUUUC [G10A A13U C79U] showed a self-cleavage of 0.4.
UAACAGGGGACCACAGCAGAAGCGUUCACGUCGCGGCCCCCGUCAGAUUCUGGUGAAUCUGCGAAUUCUGCUGUAUAUCUC [G10A A35G U41C] showed a self-cleavage of 0.83.
UAACAGGGGACCACAGCAGGAGCGUUCGCGUCGCAGCCCCUGUCGGAUUCUGGUGAAUCUGCGAAUUCUGCAGUAUAACUC [G10A A20G A28G A45G U72A U78A] gave a self-cleavage of 0.15.
With UAACAGGGGACCACAGCAGAAGCGUUCACGUCGCAGCCCCUGUCCGAUUCUGGUGGUUCUGCGAAUUCUGCUGUAUAUCUC [G10A A45C A56G A57U] the self-cleavage was 0.12.
For UAACAGGGGACCACAGCAGAAGCGUUCACGUCGCGGCCCCUGUCAGAUUCUGGUGAAUCUGCGAAUUCCGCUGUAUAUCUC [G10A A35G U69C], the self-cleavage was 0.14.
UAACAGGGGACUACAGCAGAAGCGUUCACGUCGCAGCCCCUGUCUGAUUCUGGUGAAUCUGCGAAUUCUGCUGUACAUCUC [G10A C12U A45U U76C] gave a self-cleavage of 0.06.
Variant UAACAGGGGACCUCAGCAGAAGCGUUCACGUCGCAGCCCCUGUCGGAUUCUGGUGAAUCUGCGAAUUCUGCUGUAUAUCUC [G10A A13U A45G] has a self-cleavage of 0.06.
Work on UAACAGGGGACCACAGCAGAAGCGUUCACGUCGCCGCCCCCGCCAGAUUCUGGUGAAUCUGCGAAUUCUGCUGUAUAUCCC [G10A A35C U41C U43C U80C] yielded a self-cleavage of 0.29.
Variant UAACAGGGGACCACAGCUGAAGCGUUCACGUCGCAGCCCCUGUCUGAUUCUGGUGAAUCUGUGUAUUCUGCUGUAUAUCUC [G10A A18U A45U C62U A64U] has a self-cleavage of 0.14.
For UAACAGGGGACCACAGCAGAAGCGUUCGCGUCGCUGCCCCUGUCAGAUUCUGGUGAAUCUGCGGAUUCUGCCGUACAUCUC [G10A A28G A35U A64G U72C U76C], the self-cleavage was 0.07.
UAACAGGGGACCGCGGCAGAACCGUUCACGUCGCAGCUCCUGUCAGAUUCUGGUGUAUCUGCGAAUUCUGCUGUAUAUCUC [G10A A13G A15G G22C C38U A56U] gave a self-cleavage of 0.05.
UAACAGGGGACCACAGCAGAAGCGUUCGCGUCGCAGCCCCCGUCAGAUUCUGGUGGAUCUGCGAAUUCUGCCGUAUUUCUC [G10A A28G U41C A56G U72C A77U] gave a self-cleavage of 0.05.
With UAACAGGGGACCACAGCAGGAGCGUUCACGUCGCAGCCCCUGUCAGUUUCUGGUGAAUCUGCGAAUACUGCUGUAUAUCCC [G10A A20G A47U U67A U80C] the self-cleavage was 0.07.
